Reference: paper PMC4786772, “Manipulation of prenylation reactions by structure-based engineering of bacterial indolactam prenyltransferases” (Nature Communications, 2016)

Molecular target: TleC (Streptomyces blastmyceticus, UniProt A0A077K887)
Details: with (−)-indolactam V, 37 °C, 18 h

CC(C)=CCC/C(C)=C/CC/C(C)=C/COP(=O)(O)OP(=O)(O)O [FPP]
HPLC / LC-MS product formation: both TleC and MpnD also accepted farnesyl pyrophosphate (FPP) (C15)
